# In all, about 370,000 compounds went through this assay and about 150 (0.041%) were called active. Inconclusive means that the source gave no clear call. Such entries were picked first, then a sample of the others. Calls come from the whole dose curve; as a rule, active = well fitted inhibition curve with a large enough effect; inconclusive = small, poorly fitted or top-dose-only effect; inactive = flat fitted curve, though single readings scatter. No potency is given beside an inconclusive call; the fits are too rough.
# Molecular target: Beta-lactamase (Escherichia coli (strain K12)) (UniProt P00811)
# UniProt P00811, sequence (P00811 whole entry, looked up): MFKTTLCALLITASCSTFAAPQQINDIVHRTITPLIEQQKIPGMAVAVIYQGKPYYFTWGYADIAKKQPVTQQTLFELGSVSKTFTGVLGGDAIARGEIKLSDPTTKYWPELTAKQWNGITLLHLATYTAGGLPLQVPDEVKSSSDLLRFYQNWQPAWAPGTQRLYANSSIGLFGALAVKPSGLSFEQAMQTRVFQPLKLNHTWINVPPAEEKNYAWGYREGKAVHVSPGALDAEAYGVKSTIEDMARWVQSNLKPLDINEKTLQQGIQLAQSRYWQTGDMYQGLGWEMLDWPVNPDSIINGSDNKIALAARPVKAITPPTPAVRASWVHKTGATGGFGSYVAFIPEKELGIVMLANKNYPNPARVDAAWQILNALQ
# Experiment: qHTS Inhibitors of AmpC Beta-Lactamase (assay with detergent); note: nearly all actives have a fitted effect of over 25% in size
# Details: AmpC hydrolysis of nitrocefin, absorbance 480 nm, 0.01% Triton; series mostly up to 114 µM
# In short: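 20 mM phosphate pH 7.0 + 0.01% (detergent screen) or 0.0001% Triton X-100; 5.3 nM AmpC reagent; cpd preinc 15 min RT; nitrocefin (800 uM stock) to start; A480 q20 s × 4 min; Activity was normalised to no-enzyme and no-compound control wells.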
# Potency is the fitted concentration of half-maximal effect; tags give direction and shape of the fitted curve.
row,Compound,Potency
1,C=CCN1CCc2cc(O)c(O)cc2C(c2ccccc2)C1 (stereo unspecified),"inconclusive [inhibitor, full curve, poor fit]"
2,O=C(NCCCn1ccnc1)C(=O)NCC1OCCN1S(=O)(=O)c1ccc(Cl)cc1 (stereo unspecified),"inconclusive [inhibitor, full curve]"
3,CCOc1ccc(NC(=O)c2c3c(nc4ccccc24)CCC3)cc1,inactive
4,CC1(C)CC(c2nc(-c3ccc(Br)cc3)cs2)CCS1 (stereo unspecified),"inconclusive [inhibitor, partial curve, poor fit]"
5,O=C(CC(C(=O)O)C1CCCO1)NCCc1ccc2c(c1)OCO2 (stereo unspecified),"inconclusive [inhibitor, full curve]"
6,COC(=O)CNC(=O)c1c(-c2ccccc2Cl)noc1C,"inconclusive [inhibitor, full curve]"
7,Cc1ccc(NC(=O)c2ccc(S(=O)(=O)C(F)F)cc2)c(C)c1,"inconclusive [inhibitor, partial curve, poor fit]"
8,O=C(Oc1ccccc1)c1ccc(-n2cnnn2)cc1,"inconclusive [inhibitor, full curve]"
9,CCc1nn(CCCC(=O)N2CCN(c3cccc(C)c3C)CC2)c(=O)c2cc3occc3n12,"inconclusive [inhibitor, full curve]"
10,CCCC(NC(=O)C(C)N1CCN(S(=O)(=O)c2ccccc2)CC1)c1ccccc1 (stereo unspecified),inactive
11,O=C(CN(Cc1ccco1)C(=O)CNS(=O)(=O)c1ccc(F)cc1)NCc1ccc(F)cc1,"inconclusive [inhibitor, full curve]"
12,Cc1cc(Nc2ccccc2F)n2ncnc2n1,"inconclusive [inhibitor, full curve, poor fit]"
13,COc1ccc(OC)c(CN2CCN(Cc3cc(OC)c(OC)c(OC)c3)CC2)c1,"inconclusive [inhibitor, partial curve, poor fit]"
14,CC(C)(C)c1cc(C(C)(C)C)n(-c2ccccc2)n1,"inconclusive [inhibitor, single point]"
15,COC(=O)/C=C1\SC(N2CCOCC2)=C(c2ccc(OC)cc2)C1=O,"inconclusive [inhibitor, full curve, poor fit]"
16,Cc1cc(C)c2c(-n3cccc3)c(C(=O)O)sc2n1,"inconclusive [inhibitor, full curve, poor fit]"
17,Cc1c(OCC(=O)OC(C)(C)C)ccc2c3c(c(=O)oc12)CCC3,"inconclusive [inhibitor, partial curve, poor fit]"
18,C=CCSc1ncccc1C(=O)O,"inconclusive [inhibitor, single point]"
19,CCc1ccccc1N(CC(=O)N/N=C/c1ccc(OC(=O)OC)c(OC)c1)S(C)(=O)=O,"inconclusive [inhibitor, single point]"
20,O=C(OCC#CCSc1nnc(-c2cccc3ccccc23)o1)c1ccc(Br)cc1,"inconclusive [inhibitor, full curve]"
21,COC(=O)CCSCC(=O)Nc1cc(C)on1,"inconclusive [inhibitor, partial curve, poor fit]"

row,Compound,Potency
1,CN(C)S(=O)(=O)c1cccc(NC(=S)NCCCn2ccnc2)c1,inactive
2,Cc1ccc(-c2noc(C3CCN(C(=O)Nc4ccc(C#N)cc4)CC3)n2)o1,"inconclusive [inhibitor, partial curve, poor fit]"
3,CC(=O)CC1(O)C(=O)N(CN2CCN(c3ccccc3)CC2)c2ccccc21 (stereo unspecified),"inconclusive [inhibitor, full curve]"
4,O=c1ccccn1Cc1ccccc1F,"inconclusive [inhibitor, partial curve, poor fit]"
5,O=C(NCCN1CCOCC1)c1ccc(CS(=O)(=O)Cc2ccccc2F)o1,"inconclusive [inhibitor, partial curve, poor fit]"
6,CCn1c(C(c2ccccc2)c2ccccc2)n[nH]c1=S,"inconclusive [inhibitor, full curve, poor fit]"
7,CCCCCSc1nncc(=O)[nH]1,inactive
8,COc1ccc(CCNC(=O)CCCn2c(SCC(N)=O)nc3cc4c(cc3c2=O)OCO4)cc1OC,inactive
9,CC1(O)C(=O)c2ccccc2N(c2ccccc2)C1=O (stereo unspecified),"inconclusive [inhibitor, partial curve, poor fit]"
10,CCOC(=O)N1CCc2c(sc3c2c(=O)n(Cc2ccccc2)c(=O)n3Cc2ccc(C)cc2)C1,"inconclusive [inhibitor, partial curve, poor fit]"
11,O=C(Nc1scc(-c2ccccc2)c1C(=O)O)c1ccc(F)cc1,"inconclusive [inhibitor, full curve, poor fit]"
12,O=C(COC(=O)C1CCC1)Nc1ncc(Cl)cc1Cl,"inconclusive [inhibitor, full curve, poor fit]"
13,Cc1nc(-n2nc(C)c(CCC(C)C)c2C)sc1C(=O)Nc1ccc(Br)cc1,inactive
14,COc1ccccc1NC(=O)CCN1CCCCCC1,"inconclusive [inhibitor, full curve, poor fit]"
15,CC(C(=O)Nc1ccccn1)N1C(=O)c2ccccc2S1(=O)=O (stereo unspecified),"inconclusive [inhibitor, full curve, poor fit]"
16,Cc1noc(C)c1COC(=O)c1cc(=O)[nH]c2ccccc12,"inconclusive [inhibitor, full curve]"
17,O=C(CCC(=O)N1CCSc2ccccc21)NC1CCCCC1,inactive
18,CCOc1ccc(-c2cc3nc(C4CCN(C(=O)OC(C)(C)C)CC4)c(C(=O)O)cn3n2)cc1,"inconclusive [inhibitor, partial curve, poor fit]"
19,COc1ccc(-c2nc(C#N)c(NCc3ccc(F)cc3)o2)cc1OC,"inconclusive [inhibitor, full curve, poor fit]"
20,CCN(CC)C(=O)CSc1nc2cc(S(=O)(=O)N3CCOCC3)ccc2n1CC,inactive

# Reference: PubChem BioAssay AID485294 (National Center for Advancing Translational Sciences (NCATS), 2010)
